These are yes or no findings as the source states them, for the method shown. In cells and extracts the contact can be indirect. Some entries that bind do so weakly or less than the wild type.
Key:
Experiment in all cases: co-IP; HEK293T cells cotransfected with 3×HA-Creb1 (or mutants) and 6×Myc-Mef2c (or deletions) for 24 h; lysis buffer 50 mM Tris pH 7.5, 150 mM NaCl, 5 mM EDTA, 0.1% Triton X-100, 1 mM dithiothreitol; IP with rat anti-HA antibody (control rat IgG), blot with anti-Myc
[1] = target: Creb1 deletion mutant 1−253 (UniProt Q01147)
[2] = target: 3×HA-Creb1-S119A (UniProt Q01147)
[3] = target: 3×HA-Creb1 (UniProt Q01147)
[4] = target: Creb1 deletion mutant 1−149 (UniProt Q01147)
[5] = target: Creb1 deletional construct 92−327 (UniProt Q01147)
[6] = target: T1, Creb1 deletional construct 254−327 (UniProt Q01147)
T1 sequence: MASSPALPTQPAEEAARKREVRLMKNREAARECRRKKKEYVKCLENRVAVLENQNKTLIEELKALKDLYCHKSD

Sequences of proteins named here, by UniProt entry; tags and fusion partners are left off. A change or cut given only in a name is not applied to a line headed by its entry. A line that says so, or that is headed by a name, gives the form on record, which may keep a tag or linker.
6×Myc-Mef2c (Q8CFN5-2, form named): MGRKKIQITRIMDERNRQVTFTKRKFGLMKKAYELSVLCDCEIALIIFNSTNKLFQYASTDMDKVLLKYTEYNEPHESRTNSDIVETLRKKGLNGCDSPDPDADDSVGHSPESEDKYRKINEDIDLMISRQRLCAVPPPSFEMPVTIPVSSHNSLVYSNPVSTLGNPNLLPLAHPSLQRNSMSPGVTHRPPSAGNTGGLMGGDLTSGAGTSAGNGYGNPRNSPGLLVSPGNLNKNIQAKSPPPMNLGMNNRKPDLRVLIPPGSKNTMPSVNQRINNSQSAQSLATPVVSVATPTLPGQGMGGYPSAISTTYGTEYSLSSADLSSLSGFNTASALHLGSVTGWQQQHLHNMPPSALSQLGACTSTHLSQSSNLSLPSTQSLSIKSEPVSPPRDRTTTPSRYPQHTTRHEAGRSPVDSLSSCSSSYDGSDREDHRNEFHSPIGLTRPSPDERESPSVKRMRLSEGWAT
Mef2c deletional construct 86−466 (Q8CFN5-2, form named): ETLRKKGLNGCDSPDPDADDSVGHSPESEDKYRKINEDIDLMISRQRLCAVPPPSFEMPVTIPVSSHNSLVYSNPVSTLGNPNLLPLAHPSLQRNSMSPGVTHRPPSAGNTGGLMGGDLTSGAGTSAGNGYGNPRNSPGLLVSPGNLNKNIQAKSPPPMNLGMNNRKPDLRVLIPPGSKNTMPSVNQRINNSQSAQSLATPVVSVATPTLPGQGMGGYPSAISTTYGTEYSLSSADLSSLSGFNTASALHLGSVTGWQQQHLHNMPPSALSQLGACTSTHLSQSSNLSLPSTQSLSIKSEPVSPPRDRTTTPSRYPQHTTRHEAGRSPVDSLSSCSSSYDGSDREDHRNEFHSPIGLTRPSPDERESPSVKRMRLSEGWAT
Mef2c deletional construct 175−466 (Q8CFN5-2, form named): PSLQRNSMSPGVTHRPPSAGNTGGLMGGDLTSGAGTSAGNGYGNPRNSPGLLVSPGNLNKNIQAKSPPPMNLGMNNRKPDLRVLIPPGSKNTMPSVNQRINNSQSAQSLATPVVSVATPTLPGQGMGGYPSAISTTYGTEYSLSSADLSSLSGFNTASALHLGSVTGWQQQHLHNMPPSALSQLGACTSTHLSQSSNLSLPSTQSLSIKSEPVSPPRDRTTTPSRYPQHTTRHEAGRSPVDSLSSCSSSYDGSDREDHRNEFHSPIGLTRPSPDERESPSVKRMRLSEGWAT
Mef2c deletional construct Δ(58−85) (Q8CFN5-2, form named): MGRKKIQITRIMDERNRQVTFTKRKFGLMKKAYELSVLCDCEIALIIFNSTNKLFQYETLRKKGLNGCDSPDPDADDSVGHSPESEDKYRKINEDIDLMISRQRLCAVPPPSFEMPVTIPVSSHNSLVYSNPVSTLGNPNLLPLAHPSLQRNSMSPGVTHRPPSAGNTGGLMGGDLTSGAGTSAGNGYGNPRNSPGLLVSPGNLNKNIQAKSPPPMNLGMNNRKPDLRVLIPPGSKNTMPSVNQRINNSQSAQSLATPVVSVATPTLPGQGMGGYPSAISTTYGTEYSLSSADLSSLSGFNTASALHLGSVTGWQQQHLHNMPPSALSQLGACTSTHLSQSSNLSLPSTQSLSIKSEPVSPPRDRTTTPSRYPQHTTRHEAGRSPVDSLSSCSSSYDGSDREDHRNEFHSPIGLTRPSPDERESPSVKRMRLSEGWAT

Row | binding [1] | binding [2] | binding [3] | binding [4] | binding [5] | binding [6] | Substance
1 | no binding | binds | binds | no binding | binds | binds | 6×Myc-Mef2c (from UniProt Q8CFN5-2 1-466)
2 | – | – | no binding | – | – | – | Mef2c deletional construct 86−466 (from UniProt Q8CFN5-2 86-466) (domain or fragment)
3 | – | – | no binding | – | – | – | Mef2c deletional construct 175−466 (from UniProt Q8CFN5-2 175-466) (domain or fragment)
4 | – | – | no binding | – | – | – | Mef2c deletional construct Δ(58−85) (from UniProt Q8CFN5-2 1-466)

— article PMC8945367
